# In PubChem BioAssay AID2546 (National Center for Advancing Translational Sciences (NCATS), 2010):
# The campaign covered roughly 310,000 compounds. About 11,000 (3.5%) were called active. Inconclusive results, whose numbers are uncertain, are shown with a selection of clear calls. Calls follow the shape of the dose curve; as a rule, active = well fitted inhibition curve with a large enough effect; inconclusive = small, poorly fitted or top-dose-only effect, or effect the other way; inactive = flat fitted curve, though single readings scatter. No potency is given beside an inconclusive call; the fits are too rough.
# Experiment: VP16 counterscreen qHTS for inhibitors of ROR gamma transcriptional activity;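 also: Gal4-VP16 expression switched on by copper sulfate through the metallothionein promoter; nearly all actives have a fitted effect of over 50% in size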
# Details: Drosophila S2 Gal4-VP16 UAS-luciferase, luminescence, 20 h; activity, negative = inhibition: at 53.6 µM (top of the series)
# % is scaled to controls: 0 for no effect and ±100 for the full control effect; potency is read from the fitted curve at half-maximal effect; tags tell the direction and shape of the fitted curve.
SMILES,Potency,"activity, negative = inhibition"
CSc1cccc(NC(=O)C(C)NS(=O)(=O)c2ccc(F)cc2)c1 (configuration not stated),"inconclusive [inhibitor, single point]",–
Cc1ccc(NC(=O)Cn2c(-c3ccc(F)cc3)cnc2SCC(=O)Nc2c(C)cccc2C)cc1,"inconclusive [inhibitor, partial curve]",–
COc1ccc(CCNc2ncnc3c2c(C)c(C)n3CCO)cc1OC,"inconclusive [inhibitor, partial curve]",–
O=S(=O)(Cc1ccccc1)C1CCCCC1O (configuration not stated),–,inactive: 0.133%
Cc1ccc(Nc2cc(C)c3ccc(O)cc3n2)cc1C,"inconclusive [inhibitor, single point]",–
COC(=O)c1cc(=O)n(Cc2cccs2)c(=NCc2cccs2)s1,–,inactive: -11.3%
CN1CCN(CCCOc2ccc(-c3ccccc3)cc2)CC1,–,inactive: -6.89%
Cc1cc(N2CCCC2=O)ccc1S(=O)(=O)NCCOc1ccccc1,"inconclusive [inhibitor, partial curve]",–
CCOCCCNC(=O)C(c1ccc(C)cc1)N(Cc1cccs1)C(=O)c1ccccc1O (configuration not stated),–,inactive: -4.07%
OC1(c2ccc(F)cc2)CSC(=Nc2cccnc2)N1Cc1ccco1 (configuration not stated),"inconclusive [inhibitor, single point]",–
COc1ccc(/C=N/OCC(=O)N2CC3(C)CC2CC(C)(C)C3)cc1OC (configuration not stated),"inconclusive [activator, single point]",–
COc1cc(S(=O)(=O)Nc2cccc(C)c2)ccc1NC(=O)c1cccnc1,–,inactive: -12.1%
CCC1Oc2ccc(C)cc2N(CC(=O)NCc2ccccc2OC)C1=O (configuration not stated),–,inactive: 1.85%
O=C(N/N=C/c1ccc([N+](=O)[O-])o1)c1cc(-c2ccc(-c3ccccc3)cc2)nc2ccccc12,active: 1.12 µM,–
COc1ccc(Cn2c(=O)sc3ccccc32)cc1OC,"inconclusive [inhibitor, single point]",–
O=C(NC(=S)N1CCN(c2ccccc2)CC1)c1ccc(S(=O)(=O)N2CCOCC2)cc1,active: 0.631 µM,–
N#Cc1cc(C(=O)c2cc(Br)ccc2O)cn(Cc2ccccc2)c1=O,"inconclusive [inhibitor, single point]",–
O=C1/C(=C/c2ccccc2F)SC(=S)N1CC(=O)N1CCCCC1c1cccnc1 (configuration not stated),"inconclusive [inhibitor, single point]",–
Cc1[nH]c(=S)c(C#N)c(C)c1C(=O)Nc1ccccc1,–,inactive: -0.298%
CCN(CC)S(=O)(=O)c1ccc(NC2CCN(Cc3ccccc3)CC2)nc1,–,inactive: -0.799%
CCCCCCCCNC(C)C(O)c1ccc(SC(C)C)cc1 (configuration not stated),"inconclusive [inhibitor, single point]",–
COc1cccc2cc(C(N)=O)/c(=N\NC(=O)c3ccccc3)oc12,"inconclusive [inhibitor, partial curve]",–
CCn1c(=O)n(CC)c2cc(S(=O)(=O)N3CCc4ccccc43)ccc21,"inconclusive [inhibitor, single point]",–
O=C(c1cc(Cl)nc2ccccc12)N1CCN(S(=O)(=O)c2ccccc2[N+](=O)[O-])CC1,"inconclusive [inhibitor, single point]",–
CC(C)(C)c1ccc(-c2csc(NNC3=NCCCCC3)n2)cc1,"inconclusive [inhibitor, single point]",–
CN(C)/C(=N\S(=O)(=O)c1ccccc1)c1ccc([N+](=O)[O-])cc1,–,inactive: -3.7%

SMILES,Potency,"activity, negative = inhibition"
O=C(Nc1nnc(C2CC2)s1)c1ccc(Cl)c(S(=O)(=O)N2CCc3ccccc3C2)c1,"inconclusive [inhibitor, single point]",–
O=C(Nc1cnn(C23CC4CC(CC(C4)C2)C3)c1)c1cnn2c(C(F)(F)F)cc(-c3ccco3)nc12,–,inactive: -8.34%
O=C(c1ccc(Cl)cc1)N1CCN(CCOc2ccccc2)CC1,"inconclusive [activator, single point]",–
COc1ccccc1N1CCN(C(=S)Nc2ccc(S(=O)(=O)N3CCOCC3)cc2)CC1,"inconclusive [inhibitor, single point]",–
CCOc1ccc(-c2cc(N3C(=O)Nc4ccccc4N3O)on2)cc1,"inconclusive [inhibitor, single point]",–
COc1ccccc1-c1cc(NCc2ccccc2)ncn1,–,inactive: -1.48%
Cc1ccn2c(c1)nc(=S)n2C(=O)c1ccccc1,active: 2.51 µM,–
CCN1C(=O)[C@H]2[C@H]3[C@H](O)[C@H](O)C/C(=N/OCC[C@H]4C=C[C@H](OC(C)=O)[C@@H](COC(C)=O)O4)[C@@H]3CC[C@@H]2C1=O,–,inactive: 6.23% [at 10 µM]
Cc1ncc(CO)c(/C=N/NC(=S)Nc2cccc(Cl)c2)c1O,–,inactive: -13.4%
c1ccc2sc(NN=C3CCCCCC3)nc2c1,"inconclusive [activator, single point]",–
COc1ccc(NC(=O)C2CC(=O)N/C(=N/N=C/c3ccccc3)S2)cc1 (configuration not stated),–,inactive: 4.89%
CCCCCCCc1nn2c(=O)cc(O)nc2s1,"inconclusive [activator, single point]",–
CCNc1nc(SCCOc2ccc(C)cc2)nc(N(C)C)n1,"inconclusive [inhibitor, single point]",–
O=C(CNc1cccc(F)c1)N1CCc2ccccc2C1,–,inactive: 22.6%
c1coc(CN(Cc2ccco2)c2ncnc3c2oc2ccccc23)c1,"inconclusive [inhibitor, single point]",–
Cc1cc(NC(=O)CCCN2C(=O)/C(=C\c3cccs3)SC2=S)no1,active: 12.6 µM,–
CN(CC(=O)NNC(=O)c1cccnc1)S(=O)(=O)c1cc(Cl)ccc1Cl,–,inactive: -3.45%
CN(c1ccc(C(=O)N2CCCCC2)cc1)S(=O)(=O)c1ccccc1,"inconclusive [inhibitor, single point]",–
COc1ccc(NC(=O)N2CCCC(c3nc(-c4ccc(F)cc4)no3)C2)cc1 (configuration not stated),"inconclusive [inhibitor, single point]",–
CC(=O)CSc1nsc(SCC(C)=O)c1C#N,"inconclusive [inhibitor, single point]",–
Cc1cc(C(=O)N/N=C/c2ccc(N(C)C)o2)cs1,active: 6.31 µM,–
c1ccc(-c2ccc(-c3nc(-c4ccccn4)no3)cc2)cc1,active: 1.41 µM,–
CCNC(=S)N/N=C/c1ccco1,active: 3.16 µM,–
CCc1nc(N2CCN(C(=O)CCl)CC2)c2c3c(sc2n1)CC(C)CC3 (configuration not stated),"inconclusive [inhibitor, single point]",–
O=[N+]([O-])c1nn(-c2ccc3c(c2)OCCO3)n(O)c1=NCc1ccccc1Cl,–,inactive: 0.0761%
Cc1ccc(N2C(=O)C3C4C=CC(CNC(=S)N5CCN(c6ccccc6)CC5)(O4)C3C2=O)cc1 (configuration not stated),"inconclusive [inhibitor, single point]",–

SMILES,Potency,"activity, negative = inhibition"
CNC(=O)c1[nH]cnc1C(=O)Nc1cccc(OC)c1,active: 14.1 µM,–
Cc1cc(C)c2cc(C(=O)N3CCN(c4ncccc4C(F)(F)F)CC3)[nH]c2c1,–,inactive: 1.28%
CC(C)CC[n+]1ccn(C2=C([O-])c3ccccc3C(=O)/C2=N\S(=O)(=O)c2ccccc2)c1,"inconclusive [inhibitor, single point]",–
N#Cc1ncc(Cc2ccccc2)nc1C#N,active: 14.1 µM,–
CN(/N=C/c1cc(Br)cc(Br)c1O)c1cccc(C(F)(F)F)n1,"inconclusive [inhibitor, full curve]",–
CC1(C)S[C@@H]2[C@H](NC(=O)COc3ccccc3)C(=O)N2[C@H]1C(=O)O (tested in a mixture with another compound),–,inactive: 3.57% [at 17 µM]
Cc1ccc(NC(=O)CCC(=O)c2cccs2)c(Br)c1,–,inactive: 8.66%
C=CCNC(=O)c1ccc(OC)cc1,–,inactive: -4.38%
S=C1NCCc2ccc(Cl)cc2C1c1ccccc1Cl (configuration not stated),active: 3.55 µM,–
CCOC(=O)c1cnc2c(-c3ccccc3)cnn2c1N,active: 11.2 µM,–
CCOc1cc(N2CCOCC2)c(OCC)cc1NC(C)C(=O)N1CCC(C)CC1 (configuration not stated),"inconclusive [activator, partial curve]",–
COc1ccccc1Nc1nc(NCc2ccco2)c2ccccc2n1,"inconclusive [inhibitor, single point]",–
Cn1ncc(Cl)c1C(=O)N1CCN(C23CC4CC(CC(C4)C2)C3)CC1,–,inactive: -0.943%
C[C@H](O)C(N)C(=O)O (some centres not stated),inactive,–
COc1ccc(C(=O)NC(=S)Nc2ccc(N3CCCC3)cc2)cc1OC,active: 0.891 µM,–
CCOC(=O)C1(Cc2ccccc2C)CCCN(C(=O)c2cc(C3CC3)[nH]n2)C1 (configuration not stated),–,inactive: -1.59%
Cc1cc(C)c2cc(C(=O)N3CCc4ccccc4C3)[nH]c2c1,–,inactive: -7.41%
COc1ccccc1OCC(=O)/C=C1/N(C)c2ccccc2C1(C)C,"inconclusive [inhibitor, single point]",–
COc1cccc(-c2cc(C(=O)Nc3nc4ccccc4s3)c3ccccc3n2)c1,–,inactive: -23.9%
CCOC(=O)c1c(NS(=O)(=O)Cc2ccccc2)sc2c1CCCC2,"inconclusive [activator, single point]",–
CN(c1ccccc1)C1CCCCC1NS(=O)(=O)c1ccc(Cl)cc1 (configuration not stated),"inconclusive [inhibitor, single point]",–
CCC1CCCCN1CCCNC(=O)c1ccc2nc(N3CCC(C)CC3)sc2c1 (configuration not stated),–,inactive: 18.1%
COc1cc(OC)c2ccc(=O)oc2c1C(CCN1CCCC1)c1ccc2c(c1)OCO2 (configuration not stated),inactive,–
Cc1ccc(S(=O)(=O)Cc2ccc(C(=O)N3CCN(Cc4ccccc4)CC3)o2)cc1,–,inactive: 7.4%
CC[C@H](CO)Nc1nc(Nc2cccc(Cl)c2)c2ncn(C(C)C)c2n1,active: 3.16 µM,–
